Experimental data published in article PMC12406258, “Uncovering the Unusual Inhibition Mechanism of a Trypanosome Alternative Oxidase Inhibitor Displaying Broad-Spectrum Activity against African Animal Trypanosomes” (Journal of Medicinal Chemistry, 2025).

Assay: Pretoxicity study in uninfected mice
Conditions: cumulative dose of 8 mg/kg (i.p.)

Structure (SMILES): Cc1cc(O)ccc1C(=O)OCCCCCCCCCCCCCC[P+](c1ccccc1)(c1ccccc1)c1ccccn1.[Br-] [Compound 1, {14-[(4-Hydroxy-2-methylbenzoyl)-oxy]-tetradecyl}-diphenyl(pyridin-2-yl)-Phosphonium Bromide]
- Toxicity to uninfected mice: not toxic
